Experiments:
[1] = system: Pseudomonas aeruginosa PA01
[2] = system: Pseudomonas aeruginosa PA7
[3] = system: Pseudomonas aeruginosa PA01; assay: MBC (minimum bactericidal concentration)
[4] = system: Pseudomonas aeruginosa PA7; assay: MBC (minimum bactericidal concentration)

C[PH](C)(C)[Au][S]CCO [MS-40, 2-mercaptoethanolatotrimethylphosphine gold(I)]
MIC [1]: 16 µg/mL | MIC [2]: 32 µg/mL | MBC [3]: 128 µg/mL | MBC [4]: 64 µg/mL

CC(O)C[S][Au-][P+](C)(C)C (centres unmarked) [MS-40S]
MIC [1]: 32 µg/mL | MIC [2]: 64 µg/mL | MBC [3]: 256 µg/mL | MBC [4]: 128 µg/mL
